Experimental data taken from ChEMBL document CHEMBL5308541, “MAIP: An Open-Source Tool to Enrich High-Throughput Screening Output and Identify Novel, Druglike Molecules with Antimalarial Activity” (ACS Med Chem Lett, 2023).
In all, about 150,000 compounds went through this assay and about 540 (0.36%) showed an effect of 50% or more. The list shows a part of the results.

These compounds were tested on Plasmodium falciparum (assay: Primary screen in NF54 nanoGlo assay, in single point, at 2uM, 72h; a lower Z score goes with more inhibition). Conditions: timepoint 72 hour.
Assay type: functional, Erythrocyte

With C[C@H]1CN(c2nccnc2C#N)CCN1C(=O)c1ccc2[nH]ccc2c1 as the compound, how does the “% Inhibition” value read?
Its value is -11%.

And the Z score?
Its Z score is 1.72.

What does the source list for CNc1nc(NC2COCCC2Oc2ccccn2)ncc1F (stereo unspecified)?
% Inhibition: -8%; Z score: 1.48

With COCCN1CCC(N2CCN(c3cccc(C(F)(F)F)n3)CC2)CC1 as the compound, how does the “% Inhibition” value read?
The value was 0%.

What about the Z score of the same compound?
The Z score was 0.01.

What does the source list for O=C(NCCNc1cccnc1)[C@H]1CCCN(C2CCOCC2)C1?
% Inhibition: -13%; Z score: 1.98

For CN1CCC(N2CC3CCCC3(c3noc(-c4ccccc4)n3)C2)CC1 (stereo unspecified), which “% Inhibition” value is on record?
Its value is -1%.

What about the Z score of the same compound?
The Z score was 0.26.

What does the source list for NC(=O)C1(N2CCCCC2)CCN(C[C@]2(O)CCCN3CCCC[C@@H]32)CC1?
% Inhibition: -2%; Z score: 0.26

Which results are given for COCc1ccc(CN(CCN2CCCCC2)C[C@H]2CCCN(C3CCCC3)C2)o1?
% Inhibition: 2%; Z score: -0.3

Which results are given for Nc1nccc([C@H]2CCCN(Cc3ccc(Br)c4cccnc34)C2)n1?
% Inhibition: -12%; Z score: 2.04

With N#Cc1cccnc1N1CCC(Nc2nccc(N3CCC[C@H](O)C3)n2)CC1 as the compound, how does the “% Inhibition” value read?
The value was -12%.

What about the Z score of the same compound?
Its Z score is 2.1.

For COCCN(C)C[C@H]1CCCN1c1nc(-c2ccncc2)nc2ccccc12, which “% Inhibition” value is on record?
Its value is 2%.

What about the Z score of the same compound?
Its Z score is -0.44.

Which “% Inhibition” value does the source give for CCOc1ccnc(NC[C@H]2CCN(C3CCCC3)C2)n1 here?
The value was -9%.

What about the Z score of the same compound?
The Z score was 1.98.

Which “% Inhibition” value does the source give for CC(C)COC(=O)N1CCCN(C[C@H](C)N2CCCN(C(=O)OCC(C)C)CC2)CC1 here?
Its value is 14%.

And the Z score?
The Z score was -3.09.

Which results are given for Cc1cc2nc(-c3ccccc3)cc(N[C@@H](C)c3n[nH]c(=O)[nH]3)n2n1?
% Inhibition: 2%; Z score: -0.37

Cc1ccc2nc(C(=O)O)cc(Nc3cccc(F)c3)c2c1 was tested. Which “% Inhibition” value did it give?
The value was 4%.

What about the Z score of the same compound?
The Z score was -0.66.

What does the source list for COc1ccc2nc(-c3ccccc3)c(CN3CCN(C)CC3)c(O)c2c1?
% Inhibition: -7%; Z score: 1.29

How did the “% Inhibition” value turn out when OCCN1CCC(CNc2ccc3cc(Br)c(F)cc3n2)CC1 was run?
The value was 3%.

And the Z score?
The Z score was -0.52.

How did the “% Inhibition” value turn out when Cc1nccn1-c1ccccc1CN[C@@H](C)CN1CCN(C)CC1 was run?
Its value is -3%.

And the Z score?
The Z score was 0.43.

CCN1CCN(c2ccc(CN[C@@H](C)c3cc4ccncc4s3)cn2)CC1 was tested. Which “% Inhibition” value did it give?
The value was -7%.

And the Z score?
The Z score was 1.43.

What does the source list for CN(C)CCN1CCN(c2cccc(N)c2)CC1?
% Inhibition: -8%; Z score: 1.37

How did the “% Inhibition” value turn out when CC(O)(CNc1ncc(Cl)c(NCC(C)(O)C2CC2)n1)C1CC1 (stereo unspecified) was run?
The value was 10%.

And the Z score?
Its Z score is -2.06.

How did the “% Inhibition” value turn out when CN1CCC(N2CCC(c3nc(-c4c[nH]c5ccccc45)n[nH]3)CC2)CC1 was run?
Its value is -3%.

And the Z score?
The Z score was 0.73.

Which “% Inhibition” value does the source give for Fc1ccc(-c2cc(N3CCCn4cncc4C3)n3nccc3n2)cc1 here?
Its value is -4%.

What about the Z score of the same compound?
Its Z score is 0.87.

How did the “% Inhibition” value turn out when CC(C)N(C)S(=O)(=O)c1ccc(Cl)c(C(=O)N2CCC(N3CCNC3=O)CC2)c1 was run?
Its value is -2%.

What about the Z score of the same compound?
The Z score was 0.48.

Which results are given for Cc1nnc(-c2cccc(C(=O)N3CC4(CC4)c4ccccc43)c2)o1?
% Inhibition: -3%; Z score: 0.66

Which results are given for CCOc1ccc2oc(-c3ccccc3)c(C(=O)NCCc3c[nH]c4ccccc34)c2c1?
% Inhibition: 8%; Z score: -1.66

CC(C)(C#N)C(=O)Nc1cc(-c2nc3ccc(Br)cc3[nH]2)ccc1Cl was tested. Which “% Inhibition” value did it give?
The value was -2%.

What about the Z score of the same compound?
The Z score was 0.27.

What does the source list for Cc1cc(C)nc(Nc2ccc(Cl)c(C(=O)N3CCN([C@@H](C)C(=O)NC4CC4)CC3)c2)n1?
% Inhibition: -5%; Z score: 0.85

Which results are given for O[C@H]1CCCN(CCCNc2cccc(C(F)(F)F)n2)C1?
% Inhibition: -4%; Z score: 0.66

How did the “% Inhibition” value turn out when Nc1ccc2c(N[C@@H]3CCCC[C@H]3O)ncnc2n1 was run?
The value was 1%.

What about the Z score of the same compound?
Its Z score is -0.17.

Which results are given for Cc1cc(Nc2ncnc3c2cnn3C)cnc1N1CCCC[C@@H]1C?
% Inhibition: -19%; Z score: 3.21

How did the “% Inhibition” value turn out when CN1CCC(Cc2noc(-c3ccc(-c4ccncc4)[nH]c3=O)n2)CC1 was run?
The value was -8%.

And the Z score?
Its Z score is 1.22.

Which “% Inhibition” value does the source give for CC(C)c1cnc(NC(=O)N2CC[C@H](Nc3ccc4nccn4n3)C2)s1 here?
Its value is -8%.

What about the Z score of the same compound?
The Z score was 1.46.

For Cc1ccc(-c2cc(N3CCOCC3)c3cc(NC(=O)NC4CCCCC4)ccc3n2)cc1, which “% Inhibition” value is on record?
The value was -3%.

What about the Z score of the same compound?
Its Z score is 0.44.

For Cc1c(CN2CCC[C@H](CCC(=O)N(C)C3CCN(C)CC3)C2)[nH]c2c(C)cccc12, which “% Inhibition” value is on record?
Its value is 7%.

And the Z score?
Its Z score is -1.26.

What does the source list for FC(F)(F)c1c[nH]c(C2CCN(c3ncnc4[nH]ncc34)CC2)n1?
% Inhibition: -2%; Z score: 0.39

Which results are given for O[C@H](COc1ccccc1CNCCCn1ncc2ccccc21)CN1CCCCC1?
% Inhibition: 13%; Z score: -2.26

With NC(=NCCCc1nc2ccccc2[nH]1)NC1CCCCCC1 as the compound, how does the “% Inhibition” value read?
Its value is -5%.

What about the Z score of the same compound?
The Z score was 0.9.

With CC(C)c1ccnc(NCC2CCNCC2)n1 as the compound, how does the “% Inhibition” value read?
Its value is -1%.

And the Z score?
Its Z score is 0.31.

Which “% Inhibition” value does the source give for Nc1nc(N2CCOCC2)cc(N2CCC(N3CCC[C@H](CO)C3)CC2)n1 here?
Its value is -10%.

And the Z score?
Its Z score is 1.71.

How did the “% Inhibition” value turn out when O=C(CCn1cnc(-c2ccccc2)c1-c1cc2ccccc2[nH]1)N1CCCC1 was run?
Its value is -3%.

And the Z score?
The Z score was 0.75.

Which results are given for Cc1cccc2c1OCC[C@H]2NS(=O)(=O)c1cnnn1C?
% Inhibition: 4%; Z score: -0.76

Which “% Inhibition” value does the source give for Cc1cc2nc(CCC(=O)N(C)CCC[C@H]3CCCO3)[nH]c2cc1C here?
The value was 6%.

What about the Z score of the same compound?
Its Z score is -0.98.

Which results are given for COc1cc(Br)c2nc(NCc3ccc(OC)c(OC)c3)nc(N)c2c1?
% Inhibition: 20%; Z score: -3.45

For Cc1c(C(=O)N2CCC([C@H]3CCNC3)CC2)cnn1C(C)C, which “% Inhibition” value is on record?
The value was -9%.

And the Z score?
The Z score was 1.37.

With CCOC(=O)c1nc(NC(=O)c2ccnn2C(F)F)c[nH]1 as the compound, how does the “% Inhibition” value read?
Its value is -4%.

And the Z score?
Its Z score is 0.66.

With CC[C@H](O)CN1CCN(c2nc(C(F)(F)F)nc3ccc(OC)cc23)CC1 as the compound, how does the “% Inhibition” value read?
Its value is -4%.

What about the Z score of the same compound?
The Z score was 0.92.

CN(CCC#N)c1ccc(-c2nc3ccncc3[nH]2)cc1 was tested. Which “% Inhibition” value did it give?
Its value is 5%.

What about the Z score of the same compound?
Its Z score is -0.81.

With CCN(C)c1ccnc(NC2CCN(C(=O)N3CCCCC3)CC2)n1 as the compound, how does the “% Inhibition” value read?
The value was 8%.

And the Z score?
Its Z score is -1.48.

With Cc1nc(-c2ccncc2)nc(N2CC[C@H](N3CCNCC3)C2)c1C as the compound, how does the “% Inhibition” value read?
The value was 11%.

And the Z score?
Its Z score is -1.7.

Which results are given for CCc1cnc(C)nc1CC[C@H]1COc2ccccc2O1?
% Inhibition: -17%; Z score: 2.57

Which results are given for COc1ccc2[nH]c(CCNC(=O)N3CC4CCC3CNC4)nc2c1 (stereo unspecified)?
% Inhibition: -6%; Z score: 1.09

With CCCc1cc(N2CCC(N(C)Cc3cccc4cnccc34)CC2)nc(C)n1 as the compound, how does the “% Inhibition” value read?
Its value is 6%.

And the Z score?
The Z score was -1.1.

How did the “% Inhibition” value turn out when CC(C)C1OCCCC1Nc1ccnc(NCc2ccc(C(N)=O)cc2)n1 (stereo unspecified) was run?
Its value is 3%.

And the Z score?
Its Z score is -0.65.
